Results: the supplement of paper PMC11417369
± gives the standard deviation of the averaged measurements. This is one part of the list.

System: PfAP2-I AP2 domain 3 (GST-tagged)
Experiment: gcPBM binding intensity (ln(normalized median fluorescence intensity)); higher = stronger DNA binding
Procedure, shortened: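 Binding intensity values are the highest Masliner-normalised natural-log median intensity among replicate spots of either probe orientation. The binding step lasted 1 h in 1× PBS with 1% milk, 0.2 mg/ml BSA, 0.5% salmon testes DNA and 0.03% Triton X-100, using GST-tagged P. falciparum DNA-binding domains expressed in E. coli on an Agilent 4 × 180k array of primer-extended double-stranded 36-bp intergenic genomic probes plus negative controls. Alexa488 anti-GST antibody and a 488 nm scan detected bound protein.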

Sequence	gcPBM binding intensity (ln)
AAAAGTTTAAGTTTTCGAAAATTTACCAAAAAAAAA [CACACA_negctrl_site1644]	7.67 ± 0.74
TAGAATTAAGTTATTGCACACAGGAAAAGTTTCATA [CACACA_site1634]	10.4 ± 0.4
AATCCTTACGAACACACACACACGAATAAATAAAAA [CACACA_site6363]	8.19 ± 0.42
TCTTCGAAACTATCACTCTCACAATTCATTTATTTT [TGCATGCA_negctrl_site156]	7.59 ± 0.63
ATAAATAAGAAAAATTGTACAATATTTTTTAGGATA [XGTACX_site3163]	7.75 ± 0.17
ATATATATATATATATCATTTATTTAAAAATTTTTT [TGCATGCA_negctrl_site228]	9.43 ± 0.17
CTCATTTTTGTACAGGTGCACTTATCGTTACACTAT	10.7 ± 0.3
AACACATAAAAAAGGTGTACCATAAAATATACATAC [XGTACX_site4478]	7.97 ± 0.6
CTGTGTTTTGGTTGTACACACGCTACATTATATATT [CACACA_site5487]	8.835 ± 0.021
ATATACATTAAATGAACACACATAAATAAATTACAT [CACACA_site2852]	7.8 ± 0.47
TTTTAATTTTGTTGTTGTACAAATAACATGTGAGGG [XGTACX_site4401]	8.59 ± 0.15
TATTTTATCATTTTTTTTATGTCTTTATTTCACTTG [CACACA_negctrl_site1398]	7.61 ± 0.8
ATATACACATTAATAACACACAATATGATAACAAAT [CACACA_site7670]	7.96 ± 0.38
ATATGAGTATAAAAATGTACGGAGCAACTAAATATA [XGTACX_site620]	7.96 ± 0.67
TATAAATATGTATATGCATGTGGAATATATAATTAA [TGCATGCA_site226]	8.26 ± 0.52
AAATAAAACAGACACACACACACATACACAAAAAAA [CACACA_site7753]	7.97 ± 0.32
TGTCACCTATTTTTTTGTACGTATGTCCATTTTTTT [XGTACX_site4368]	8.1 ± 0.64
ATTACAACCACATTGACATGCAAATGTAGAGGGGGA [TGCATGCA_site694]	8.92 ± 0.16
TTTATGTAATATACATGTACAGAATATAAAATATAT [XGTACX_site6906]	7.87 ± 0.59
TTAACTTCTTTAAAATGTACATATATTAAATAATAA [XGTACX_site3391]	7.74 ± 0.28
AAAAAATATAGATGCACACACAAAAAAACAAATTAA [CACACA_site6718]	8.71 ± 0.13
GTATTATTATTTTATGCATGTACATTGAATTATATT [TGCATGCA_site34]	8.26 ± 0.44
ATATATATATATCAGAGTACATTCTTTAAAATATAT [XGTACX_site5915]	9.43 ± 0.11

Sequence	gcPBM binding intensity (ln)
AGATTTTGAAATTATAAAAAAATTTCACTTCATTTA [CACACA_negctrl_site888]	7.3 ± 0.57
TATTCTTACATCACCTCACACATTTAATATTCCTTA [CACACA_site4693]	8 ± 0.62
TGGTTTATTTATTAAGTGCATAAATGCAATATATAT	10.6 ± 0.44
TATTATATATTTAATAGTACATATAAAATAATAAGG [XGTACX_site4823]	7.8 ± 0.33
TATACAGATGGACACACACACATAAATAAATATATA [CACACA_site4863]	8.04 ± 0.26
TTTATTTTTAACAGTGCACACATAACTTAATTATAT [CACACA_site8681]	10.69 ± 0.071
TACTATAACCCACATACACACAAAAAAAAAAAAAAA [CACACA_site4454]	8.29 ± 0.37
CATAAAATTGTATTTTGTACACATTTTGTATACATT [XGTACX_site5705]	7.64 ± 0.38
TATATATAGAAACACACACACATATATATATATATT [CACACA_site4115]	7.88 ± 0.46
ATTTACATAAACGTCTGTACTAATATACAATTTTCT [XGTACX_site1700]	7.79 ± 0.6
TATTTTATTTCAAATCTTAATAATTGTAATTCTTCA [XGTACX_negctrl_site442]	7.08 ± 0.53
TTTTAATTAGAAATCATACACACATATATATATATA [CACACA_site174]	9.26 ± 0.33
ATTTTTAAAATAAATACATGCATATATTTATATGTT [TGCATGCA_site394]	8.06 ± 0.74
TGTGTAATACATAATACACACATGTATATGTCGCAT [CACACA_site4757]	7.83 ± 0.41
AAAAAAAAAGAGGCGTGTACATATATAATTTAAATT [XGTACX_site6827]	7.93 ± 0.71
ATAATAGAAACAAACAGTACACATACCTAAAAGGAA [XGTACX_site8647]	7.75 ± 0.49
TTATTAAAGTATAACTGTACATGCGAGTAAAAGAAT [XGTACX_site7388]	8.5 ± 0.48
TGTTCTAATATTTGTTGTACATTTACATTTCTCTCT [XGTACX_site2585]	7.99 ± 0.67
TCTTATATAACGAAAGTAAAATAATATGCTAAGCAT [CACACA_negctrl_site668]	7.49 ± 0.47
TTTTTTTTTTTTGAAGTGCATGTTACGATGAACAAA [GTGCAC_site9451]	8.72 ± 0.42
CTAAAAAGAGAAGTGTGTCCTCAAATTAATATAATT [XGTACX_site1057]	7.71 ± 0.47
GAAAAAAAAAAAAATACACACAAATTGGTATAGAAT [CACACA_site380]	7.54 ± 0.8
AATGAATATTAAAGGAGTACACATAATAAGTAAGAA [XGTACX_site7354]	8.4 ± 0.77

Sequence	gcPBM binding intensity (ln)
TATATAAAAATATACACACACAAATGTATTTATATA [CACACA_site4284]	7.44 ± 0.38
AAAATAGAGTTGAATGCACACATACAAATTTTTAGG [CACACA_site9188]	9.44 ± 0.36
TTATTAAATTCTTTATTTAGCATATACAATAAAAGA [CACACA_negctrl_site1420]	7.46 ± 0.44
ATAAATAATTTATTCACACATACAAAAGTTTACAAA [CACACA_site5666]	7.73 ± 0.4
AAATATTATGTACGCACACACATTTTTGATATATAA [CACACA_site7755]	8.57 ± 0.14
CGCAACGTGAAAATACGTACACATACATTTTTATAT [XGTACX_site330]	7.8 ± 0.41
TATGGAACACACCTTAATATGTGATAAAATATGATA [GTGCAC_negctrl_site718]	7.63 ± 0.52
GTTATTAAATAATTCACACACATATATATATATATA [CACACA_site2260]	9.48 ± 0.39
TATTCCTATATACAGCGTACAAAAAATAATATGTAT [XGTACX_site8112]	7.93 ± 0.44
GGGGGAAGGTTGAAGGTGCTTGATGGAGAAAAATAT	9.54 ± 0.15
TTAATACATACATTCACACACACTAAATGTATATTT [CACACA_site4105]	7.79 ± 0.57
TAATCGTTTTATAAATGTACAAAATTGTTATGTTAT [XGTACX_site5147]	7.66 ± 0.52
AATAGGATATGGTACATTTTTTGTATACTTTTTGTT [CACACA_negctrl_site1804]	7.62 ± 0.49
AAACAAGTAATTGTTATTATTATTATATTATTATTA [CACACA_negctrl_site402]	7.18 ± 0.26
ATAAATTCTATGTATACACACATATATAATATATAT [CACACA_site2689]	8.12 ± 0.47
AAAAAATAGAATATGGGTACTAAAAAGATACAAACA [XGTACX_site4464]	8.02 ± 0.73
AAATTCGTAATAATGTGTACATAACTATACATAATT [XGTACX_site1717]	7.67 ± 0.38
ATTTATATGAAAATATGTACTTATATAAATTTATTT [XGTACX_site53]	7.59 ± 0.36
GATTATTTCTAAAAAGTGCATATTTAAAAATCTCCT	9.815 ± 0.035
TATTATATTATACATACACACCCATATAATATGTTT [CACACA_site8191]	8.12 ± 0.59
ATTGTTTTGTAATATGAAAAAATTGTGTAATGTGTC [CACACA_negctrl_site1510]	8.18 ± 0.5
AATATATAAGCTGTTCTATTCAAGAATTATATCTTA [CACACA_negctrl_site270]	7.25 ± 0.59
AGAAGATTAAACATTGCACACAAAAACATATTTTCT [CACACA_site8072]	8.49 ± 0.4

Sequence	gcPBM binding intensity (ln)
CAAAGGAAACCTATCTGTACACATATTGGGGGAAAA [XGTACX_site3502]	8.77 ± 0.13
TGCCCTTTGGTTATAACACACATGCACCCGTAAATA [CACACA_site3842]	9.175 ± 0.078
ATATTTTATATAATAGTGCAAATAATATTAAATAAT	10.8 ± 0.37
ATTATAATATTTAATTGTACTTGTATTTATTCCAAA [XGTACX_site6417]	7.72 ± 0.33
AATAAATATATTAAAAGTACACAAATATTATTTAAT [XGTACX_site2482]	7.79 ± 0.36
AAGATTAAACATTGCACACAAAAACATATTTTCTAT [CACACA_site530]	8.45 ± 0.46
AAAAAAAATATATTACAAAACTTAGGATCCTAATAT [CACACA_negctrl_site470]	7.43 ± 0.55
CACATAAAATAAGGTGCATGCAAACGAGAAAATAAA [TGCATGCA_site75]	9.5 ± 0.042
ATATATATATAATAATGTACTTATAATAGATGTGTA [XGTACX_site4677]	8.84 ± 0.085
ATATATATATATATTTGTACTTACATTTTTATTTAT [XGTACX_site4551]	9.2 ± 0.23
AAAAATATAACCGTTACACACAAAATAATATGAGAA [CACACA_site3773]	7.72 ± 0.66
ATAATAAGGTTAAGCACACATATTACATATATAACT [CACACA_site3356]	8.54 ± 0.28
GAACGATATATTATATGTACATATATATATATATAT [XGTACX_site394]	9.32 ± 0.23
TCGTTTCATAATATTGTGCACATATATATTTACAAT	10.8 ± 0.17
CGTAAACGATATAAATGTACGAATATCTATATATTA [XGTACX_site8116]	7.39 ± 0.38
TATATATTGCCCTTCACACACACACCGATATATATA [CACACA_site5390]	9.02 ± 0.2
TTCTTTTAAAAATATATTTTAAGAAAATTTAATTTA [GTGCAC_negctrl_site237]	7.33 ± 0.33
GGATAAGAAAAGAAGTGTACATATATATATATATAT [XGTACX_site8290]	9.38 ± 0.37
TTTATTTTTTGAAACACACACAAAAAAAATGATACA [CACACA_site1881]	8.04 ± 0.33
ATAAAGCACACCGACACACACATATATATATATATA [CACACA_site1047]	9.96 ± 0.67
